Values marked as one replicate rest on one cluster of the flow cell; about a third of the high ones do not repeat.
The sequences below were run on ATP (assay: switch fluorescence ratio, 500 uM ATP over buffer (Cy3 cluster intensity, sum of 5 cycles each) (fold (ratio)); higher = stronger signal-on switching upon ATP binding; sequences stand for … in TCGTCGGCAGCGTCAGATGTGTATAAGAGACAGTTTTTTTTTTTTTTTTTTTTTTTTT…TC). Details: aptamer strand: ATP DNA aptamer (quencher-CACCTGGGGGAGTATTGCGGAGGAAGG + anchor), 100 nM annealed; ATP concentration: 500 uM; one replicate.
In short: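 Exposure to 500 uM ATP lasted 15 min at 22 °C before imaging, and a selection-buffer image was taken beforehand, for Cy3-labelled switching-strand clusters on a modified Illumina MiSeq flow-cell annealed to 100 nM quencher-labelled ATP aptamer. Five buffer/ATP cycles were run with NaOH stripping and re-annealing between them. The fluorescence ratio per cluster is summed target-cycle over summed buffer-cycle Cy3 intensity, averaged per switch-domain sequence. Clusters outside 100-1000 RFU were excluded.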

Sequence | switch fluorescence ratio
ACGCGACGGC | 1.17
ACGCGGTGGC | 1.13
ACGCGTGAAA | 0.974
ACGCTAAGCA | 1.28
ACGCTAATCA | 1.18
ACGCTATGCC | 1.19
ACGCTCAAGG | 1.09
ACGCTCCAAC | 1.47
ACGCTGGGTC | 1.07
ACGCTTTAAG | 1.03
ACGGAATTAC | 3.3
ACGGACAAGG | 1.08
ACGGACGGTG | 1.12
ACGGACTGCG | 1.04
ACGGAGCTGG | 2.01
ACGGAGGAAC | 1.02
ACGGATAAAA | 1.01
ACGGATAAG | 1.09
ACGGATTTTT | 1.01
ACGGCAGCAA | 1.66
ACGGCAGTCT | 1.03
ACGGCGCCTT | 0.994
ACGGCGGAAC | 1.04
ACGGCTAAGC | 1.02
ACGGCTCATT | 1.01

Sequence | switch fluorescence ratio
ACGGCTTGG | 0.952
ACGGGAGCCC | 0.975
ACGGGAGGGT | 1.04
ACGGGATGTT | 1.02
ACGGGCGGTA | 0.986
ACGGGGGATA | 1.04
ACGGGGGGA | 1.12
ACGGTATTCT | 1.16
ACGGTCT | 1.03
ACGGTCTCGA | 0.974
ACGGTCTGCA | 1.05
ACGGTGCTGT | 0.998
ACGGTGTAGA | 0.996
ACGGTTCAAG | 0.973
ACGTAAGCCT | 1.05
ACGTACCGT | 1.6
ACGTAGCTT | 2.03
ACGTATAGTT | 1.06
ACGTCAAAAA | 3.63
ACGTCAAACC | 1.26
ACGTCACGCG | 1.19
ACGTCAGTCT | 0.999
ACGTCGACGG | 0.997
ACGTCTCCTT | 1.05
ACGTCTGGGC | 1.03

Sequence | switch fluorescence ratio
ACGTGAGTAC | 1.03
ACGTGATAGC | 1.33
ACGTGCCAGC | 0.98
ACGTGCCATA | 0.976
ACGTGCCGTG | 1
ACGTGCTATT | 1.01
ACGTGGAGAC | 1.11
ACGTGGAGCG | 0.989
ACGTGGGACT | 0.967
ACGTGGGTAC | 1.09
ACGTGTCCCC | 1.05
ACGTTAGATG | 1.12
ACGTTAGTGA | 0.97
ACGTTCGCAC | 1.8
ACGTTGGGTT | 0.979
ACGTTTATAC | 3.37
ACGTTTCTCT | 1.04
ACTAAAAGAG | 0.997
ACTAAATCAT | 1.04
ACTAACATGT | 1.01
ACTAACCGG | 1.06
ACTAACTATT | 1.08
ACTAAGAGCG | 0.982
ACTAAGGTGT | 1.27
ACTAATGAGT | 1.02

Sequence | switch fluorescence ratio
ACTACAGCCA | 1.12
ACTACATGAG | 1.06
ACTACCACTC | 1.31
ACTACGACAG | 1.1
ACTACGGTTG | 1.04
ACTAGAATTT | 0.979
ACTAGAGGTG | 1.13
ACTAGATGCT | 0.997
ACTAGGTAT | 1.03
ACTAGTAATG | 1
ACTAGTCCTG | 1.02
ACTAGTGCAT | 1.04
ACTAGTGGCT | 0.958
ACTAGTTAAC | 0.961
ACTAGTTGAT | 1.12
ACTATACAGT | 1.21
ACTATGAGGC | 0.984
ACTATGCTTG | 1.08
ACTATGGTTT | 1.04
ACTATTTACG | 1.09
ACTCAAAAAT | 1.02
ACTCAAGATT | 1.04
ACTCACCACA | 1.34
ACTCACTTGT | 1.14
ACTCAGGGTC | 1.02

— the supplement of paper PMC10126150
